Measured values published in the supplement of paper PMC4967469.
By IC50 is meant the dose at which the fit gives 50% viability; a fit beyond the top or the lowest dose is shown as a bound at that dose. For AUC the same curve is integrated over the 256-fold range of doses and scaled to a fraction; values near 1 show little effect. For some of these results: Any top dose called inferred is not printed in the source and was worked back from the curve model. For some of these results: An entry number marks a drug with two screens in the source, which often give different values.

Legend:
Assay in all cases: Viability of human cancer cell lines after 72 h of drug (GDSC screen)
Y-39983 = compound: C[C@@H](N)c1ccc(C(=O)Nc2ccnc3[nH]ccc23)cc1 [Y-39983]; settings: top dose 20 µM; top dose inferred
Procedure: (§1)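 Human cancer cell lines in 384-well plates, medium with 10% serum, drug for 72 h over a 256-fold dose range (nine 2-fold or five 4-fold steps up to the top dose). Adherent lines were fixed and stained with the nucleic acid dye Syto60, suspension lines read with resazurin; signal relative to control wells, capped at 0 and 100%. One two-parameter sigmoid per drug and line, fitted in a mixed model over all curves with the slope shared within a line.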

PHA-793887 = compound: CC(C)CC(=O)Nc1n[nH]c2c1CN(C(=O)C1CCN(C)CC1)C2(C)C [PHA-793887]; settings: top dose 10.24 µM
Procedure: as §1

Epothilone B = compound: C/C(=C\c1csc(C)n1)[C@@H]1C[C@@H]2O[C@]2(C)CCC[C@H](C)[C@H](O)[C@@H](C)C(=O)C(C)(C)[C@@H](O)CC(=O)O1 [Epothilone B]; settings: top dose 0.032 µM; top dose inferred
Procedure: as §1

TPCA-1 = compound: NC(=O)Nc1sc(-c2ccc(F)cc2)cc1C(N)=O [TPCA-1]; settings: top dose 20 µM
Procedure: as §1

PLX4720 = compound: CCCS(=O)(=O)Nc1ccc(F)c(C(=O)c2c[nH]c3ncc(Cl)cc23)c1F [PLX4720]; settings: top dose 10 µM
Procedure: as §1

[1] = screen: GDSC drug entry 1371, top dose inferred

| Cell Line | AUC (Y-39983) | IC50 (Y-39983) [µM] | AUC (PHA-793887) | IC50 (PHA-793887) [µM] | AUC (Epothilone B) | IC50 (Epothilone B) [µM] | AUC (TPCA-1) | IC50 (TPCA-1) [µM] | AUC (PLX4720; [1]) | IC50 (PLX4720; [1]) [µM] | AUC (PLX4720; screen: GDSC drug entry 1036) | IC50 (PLX4720; screen: GDSC drug entry 1036) [µM] |
| --- | --- | --- | --- | --- | --- | --- | --- | --- | --- | --- | --- | --- |
| KP-4 (pancreas, adherent) | 0.985 | > 20 | 0.816 | 5.39 | 0.344 | 0.000752 | 0.954 | > 20 | 0.89 | > 10 |  |  |
| KU-19-19 (bladder, adherent) | 0.964 | > 20 | 0.912 | > 10.2 | 0.984 | > 0.032 | 0.986 | > 20 | 0.985 | > 10 | 0.934 | > 10 |
| KYSE-50 (oesophagus, adherent) | 0.959 | > 20 | 0.824 | 5.42 | 0.296 | 0.000564 | 0.897 | > 20 | 0.989 | > 10 | 0.981 | > 10 |
| KYSE-70 (oesophagus, adherent) | 0.975 | > 20 | 0.968 | > 10.2 | 0.708 | 0.00822 | 0.96 | > 20 | 0.985 | > 10 |  |  |
| KYSE-140 (oesophagus, adherent) | 0.938 | > 20 | 0.677 | 2.14 | 0.426 |  | 0.821 | 13.6 |  |  | 0.905 | > 10 |
| KYSE-150 (oesophagus, adherent) | 0.968 | > 20 | 0.886 | > 10.2 | 0.353 | 0.000799 | 0.886 | > 20 | 0.988 | > 10 | 0.981 | > 10 |
| KYSE-180 (oesophagus, adherent) | 0.889 | > 20 | 0.835 | 6.32 | 0.34 | 0.000733 | 0.856 | 15 | 0.93 | > 10 |  |  |
| KYSE-220 (oesophagus, adherent) | 0.982 | > 20 | 0.771 | 4.13 | 0.44 | 0.00136 | 0.831 | 13.6 | 0.984 | > 10 | 0.979 | > 10 |
| KYSE-270 (oesophagus, adherent) | 0.933 | > 20 | 0.744 | 2.81 | 0.274 | 0.000513 | 0.911 | > 20 | 0.99 | > 10 |  |  |
| KYSE-410 (oesophagus, adherent) | 0.957 | > 20 | 0.852 | 8.7 | 0.413 | 0.00114 | 0.961 | > 20 | 0.978 | > 10 | 0.983 | > 10 |
| KYSE-450 (oesophagus, adherent) | 0.939 | > 20 | 0.561 | 0.932 | 0.244 | 0.000386 | 0.757 | 6.52 | 0.987 | > 10 | 0.975 | > 10 |
| KYSE-510 (oesophagus, adherent) | 0.981 | > 20 | 0.94 | > 10.2 | 0.094 | 0.00013 | 0.947 | > 20 | 0.974 | > 10 | 0.953 | > 10 |
| KYSE-520 (oesophagus, adherent) | 0.981 | > 20 | 0.943 | > 10.2 | 0.731 | 0.0116 | 0.953 | > 20 | 0.979 | > 10 | 0.955 | > 10 |
| LC-1-sq (lung squamous cell carcinoma, adherent) | 0.983 | > 20 | 0.877 | > 10.2 | 0.745 | 0.0115 | 0.951 | > 20 | 0.982 | > 10 | 0.985 | > 10 |
| LCLC-97TM1 (large cell lung carcinoma, adherent) | 0.943 | > 20 | 0.267 | 0.129 | 0.31 | 0.000553 | 0.427 | 0.774 | 0.845 | 8.25 | 0.903 | > 10 |
| LCLC-103H (large cell lung carcinoma, adherent) | 0.945 | > 20 | 0.698 | 2.16 | 0.205 | 0.000301 | 0.861 | 14.4 | 0.988 | > 10 | 0.978 | > 10 |
| LK-2 (lung squamous cell carcinoma, adherent) | 0.876 | 17.9 | 0.887 | > 10.2 | 0.58 | 0.00326 | 0.775 | 7.48 | 0.988 | > 10 | 0.989 | > 10 |
| LN-18 (glioma, adherent) | 0.972 | > 20 | 0.985 | > 10.2 | 0.459 | 0.00158 | 0.982 | > 20 | 0.991 | > 10 | 0.979 | > 10 |
